Measurements: the RNAGym collection of RNA variant scans (doi:10.7554/elife.90254)
Read counts are not given, so values of variants with three or more changes are uncertain.

B1: LINE1-mini (parent)
chain: GGCAGAGCUCAACACAGCGUGGCAAAGUGGCUGUGGCUAGACUGCC

Variants of: B1
Assay: self-cleavage, relative activity (ratio to wild type); higher = more cleavage; in vitro, sequencing; the parent is a self-cleaving ribozyme
With GGGAGAGCUCAACACAGCUUGGCAAAGUGGCUGUGGCUAGACUGCU [C3G G19U C46U] the self-cleavage was 0.08. With GGCAGAGCUUAACACAGCAUGGCAAAAUGGCUCUGGCUAGAUUGCC [C10U G19A G27A G33C C42U] the self-cleavage was 0.02. GGCAGAGCUCAACACAUCGUGGGAAAGUGGCUGUGGCUCGACUGCC [G17U C23G A39C] gave a self-cleavage of 0.07. Variant GGCAGAGCUCAAGACAGCGUGCCUAAGUGGCUGUGGCUAAACUGAC [C13G G22C A24U G40A C45A] has a self-cleavage of 0. With GACAGAGCUCAACACAGCGUGGCAAAGUGGUUGUGGCUGGACUGCA [G2A C31U A39G C46A] the self-cleavage was 0.05. GGGAGAGCUCAACACAGUGCGGCAAAGUGGCUGUGGCUAGACUGCC [C3G C18U U20C] showed a self-cleavage of 0.1. GGUAGAGCUCAACACAGCGUGGCAAAGUGGCUGUGGCAAGAUUGCC [C3U U38A C42U] showed a self-cleavage of 0.37. Work on GGCUGAGCUCAACUCAGCGUGGCAAGGUGGCUGUGGCUAGACUUCC [A4U A14U A26G G44U] yielded a self-cleavage of 0.1. Variant UGCAGAGCUCCACACAGCGUGGCAAAGUGGCUGUGGCUAGACUGCU [G1U A11C C46U] has a self-cleavage of 0.06. GGCAGAGCUCAACUCAUCGUGGCAAAGUGGCUGUGGCCAGACUGCC [A14U G17U U38C] showed a self-cleavage of 0.05. GGCAGAGCACAACACAGCGUGGCAUAGUGGCUGUGGCUAGACUGCG [U9A A25U C46G] showed a self-cleavage of 0.07. Work on GGCAGAGCUCAACAUAGCGUGGUAAAGUGGCUGUGGCAGGACUGCC [C15U C23U U38A A39G] yielded a self-cleavage of 0.03. In the case of GGCAGAGCUCAACACAGCCUGGCAAAGUGGCUGUAGCUAGACUGUC [G19C G35A C45U], the self-cleavage is reported as 0.19. With GGCAGAGCUAAACACAGCGUCUCAAAGUGGCUGUGGUUAGACUGCC [C10A G21C G22U C37U] the self-cleavage was 0.03. Work on GGCAGAGCUCGGCACAGCGUGGCAAAGUGGCUGCGGCUAGACUGCC [A11G A12G U34C] yielded a self-cleavage of 0.02. Variant GGCAGAGCUCAACACAGCGCGGCUAAGUGGCUGUGGCUAGACUGUC [U20C A24U C45U] has a self-cleavage of 1.89. GGCAGAGCUCAACAUGGCGUGGCAAAGUGACUGUGGCUAGACUGCC [C15U A16G G30A] showed a self-cleavage of 0.02. GGCAGAGUUCCACCCAUCGUGGCAAAGUGGCUGUGGCUAGACUGCC [C8U A11C A14C G17U] gave a self-cleavage of 0.03. GGCAGAGCUCAACACAGUGUGGAAAAGUUGCUGUGGCUAGACUGCC [C18U C23A G29U] showed a self-cleavage of 0.9. GGCAGAGCUCAACACAGCGCCGCAAAGUGGCUGCUGCUAGACUGCC [U20C G21C U34C G35U] showed a self-cleavage of 0.05. GGCGGUGCUCAACACAGCGUGGCAAAGUGGCUGUCGCUAGACUGCC [A4G A6U G35C] gave a self-cleavage of 0.02. In the case of GUCAUAGCUCAACACAGCGUGGCAAAGUAGCUGUGACUCGACUGCC [G2U G5U G29A G36A A39C], the self-cleavage is reported as 0. With GGCAGAGUUCAACACAGCGUGGCAAAGAGGCUGUGCCUAGACUGCC [C8U U28A G36C] the self-cleavage was 0.18. Variant GGCAGAGCCCGACACAGAGUGGCAACGUGGCUGUGGCUAGACUGCC [U9C A11G C18A A26C] has a self-cleavage of 0.01. Work on GGCAGAUCUCUACACAGCGCGGCAAAAUGGCUGUGGCUAGACUGCC [G7U A11U U20C G27A] yielded a self-cleavage of 0.02. GCCAGAGCUCACCACAGCUUGGCAAAGAGGCUGUGGCUGGACUGCC [G2C A12C G19U U28A A39G] gave a self-cleavage of 0. In the case of GGCAGAGCUAAUCACAGCGUGGCUAAGUGGCUGUGGCUUGACUGCC [C10A A12U A24U A39U], the self-cleavage is reported as 0.05. In the case of GGUAGAGCUCCCCACAGCCUGGCAAAGUGUCUUUGGCUAGACUGCC [C3U A11C A12C G19C G30U G33U], the self-cleavage is reported as 0. For GGCAGAGCUCAACACAGCGUGGCAAAGUGUGUGUGUCUAGACUGCC [G30U C31G G36U], the self-cleavage was 0.05. Variant GGCAUAGCUCAACACAGCGUGGCAAAGUGGCUGUGACUAGACUCCC [G5U G36A G44C] has a self-cleavage of 0.04. Variant GGCAGAGCUCAACACAAAGCGGAAAAGUGGCGGCGGAUAGACUGCU [G17A C18A U20C C23A U32G U34C C37A C46U] has a self-cleavage of 0.03. Variant UGCACAGCUCAACACAGCGUGGCAAAAUGGAUGUGGUUAGACUGCC [G1U G5C G27A C31A C37U] has a self-cleavage of 0.08. For GGCAGAGCUCAAUCAAGCGUGGCAAAAUGGCUGUGGCUAGACUGCC [C13U A14C C15A G27A], the self-cleavage was 0.12. GGCAGAGCUCAACAGAGCGCGGCAAAGUGGCUGUGUCUAGACUGCC [C15G U20C G36U] showed a self-cleavage of 0.03. For GGCAGAGCUCAACACAGCGUGGCCAAGAGGCUGUGGCUAGACUUCC [A24C U28A G44U], the self-cleavage was 0.01. With GAUAGAGCGCAACACAGCGUGGCAAAGUGGCUGUGGCUUGACUGCC [G2A C3U U9G A39U] the self-cleavage was 0.08. Work on AGCAGAGCUCAACGCAGCGUGGCAAAGUGGCUGUGACUAGACUGCC [G1A A14G G36A] yielded a self-cleavage of 0.14. GGCUGAGCUCAACACCGCGUGGCAAAGUCGCUGUGGCUAGACUGCC [A4U A16C G29C] gave a self-cleavage of 0.05. GCCAGCACUCAACACAGCGUCGCAAGGUGGCUGUGGCCACACUGCC [G2C A6C G7A G21C A26G U38C G40C] showed a self-cleavage of 0.05. For GGCAGAGCUUAGCACUGGGUGGCAAGAUGGCUGUGGGUAGACUGCC [C10U A12G A16U C18G A26G G27A C37G], the self-cleavage was 0.03. In the case of GGCAGAGCUCAACAUAGCUUGACAAAGUAGCUGUGGCUCGACUGCC [C15U G19U G22A G29A A39C], the self-cleavage is reported as 0.08. Variant UCAAGAGCACAACACAGCGUGGCAAAGUGGCUGUGGCUCGACUGCC [G1U G2C C3A U9A A39C] has a self-cleavage of 0.39. Variant GGCAGAGCCCAACACAGCGUGUCAAAGUGGUUGGGGCUAGACUGCA [U9C G22U C31U U34G C46A] has a self-cleavage of 0.01. In the case of CGCAGAGCUCAACACAGCGUGACAAAGUGGGUUUGGCUAGACUGCC [G1C G22A C31G G33U], the self-cleavage is reported as 0.01. GGCUGAGCUCAACACAGCGUUGCAAAGUGGCUGUGGCUAGACUGUC [A4U G21U C45U] gave a self-cleavage of 0.12. GGCAGAGCUCAACUCAGCGUGGGUAAGUGGCUGUGGCUAGACUGCC [A14U C23G A24U] gave a self-cleavage of 0.07. With GGCAGAGCUCUACCCAGCGUGUCAAAGUGGCUGUGGCUAGACUGCC [A11U A14C G22U] the self-cleavage was 0.03. In the case of GGCACAGCUCAACGCAGCGUGGCAAAGUGGCUGUGGCUAGACUCCC [G5C A14G G44C], the self-cleavage is reported as 0.09. GGCAGAGAUCAACACAGCUUGGCAAAGUGGCUGUGGCUACACCGUC [C8A G19U G40C U43C C45U] showed a self-cleavage of 0.06. In the case of GGCAGAGCUCAACACAGCGUGGCAAAUUGGCGGUGGCUAGACUGUC [G27U U32G C45U], the self-cleavage is reported as 0.04. With GGCAGAGCUCAACACAGCGUGCCAAAAUGGCUGUGACUAGACUGCC [G22C G27A G36A] the self-cleavage was 0.1. GACAGAGAUCAACACAUCGAGGCAAAGUGGCUGUGGCUAGCCUGCC [G2A C8A G17U U20A A41C] gave a self-cleavage of 0.52. GGCAGAGCUCAAGACAGCGUGGAAAAGAGGUUGUGGCUAGACAGCC [C13G C23A U28A C31U U43A] showed a self-cleavage of 0.02. For GACAGAGCUCUACAAAGCGUGGCAAAGUGGCUGUGGCUAGACUGCC [G2A A11U C15A], the self-cleavage was 0.04. GGCAGAGCUCAACACAUCGCCGCAAAGUGGCUGUGGCUAGACUGCC [G17U U20C G21C] showed a self-cleavage of 0.11. GGCAGAGUUGAACACAUCGUGCUAAAUUGGCUGUGGCUAGACUGCC [C8U C10G G17U G22C C23U G27U] showed a self-cleavage of 0.02.
